Z-score data for 115 compounds are collected here from PubChem BioAssay AID488969 (Vanderbilt High Throughput Screening Facility, 2010).

Over roughly 110,000 compounds, “z-score” has its median near -0.1; the highest 2% begin near 2. This is one part of the list. Activity calls are given as the source filed them.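 The calls were made as follows: active = z-score in the third read window above 3 or below -3; inactive = the rest.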

The test concerns the target Metabotropic glutamate receptor 8 (Rattus norvegicus) (UniProt P70579). The test is described as follows: rat mGluR8 modulators via GIRK flux, primary screen, cell-based, thallium flux, HTS (AID 488969). The conditions noted are these: HEK293 rat mGluR8, GIRK (G protein-gated inwardly rectifying potassium channel) thallium flux, FluoZin2; at 10 µM; stronger effect = higher value; submaximal glutamate (EC20) added with thallium.
Chain of UniProt P70579 (P70579 whole entry, looked up): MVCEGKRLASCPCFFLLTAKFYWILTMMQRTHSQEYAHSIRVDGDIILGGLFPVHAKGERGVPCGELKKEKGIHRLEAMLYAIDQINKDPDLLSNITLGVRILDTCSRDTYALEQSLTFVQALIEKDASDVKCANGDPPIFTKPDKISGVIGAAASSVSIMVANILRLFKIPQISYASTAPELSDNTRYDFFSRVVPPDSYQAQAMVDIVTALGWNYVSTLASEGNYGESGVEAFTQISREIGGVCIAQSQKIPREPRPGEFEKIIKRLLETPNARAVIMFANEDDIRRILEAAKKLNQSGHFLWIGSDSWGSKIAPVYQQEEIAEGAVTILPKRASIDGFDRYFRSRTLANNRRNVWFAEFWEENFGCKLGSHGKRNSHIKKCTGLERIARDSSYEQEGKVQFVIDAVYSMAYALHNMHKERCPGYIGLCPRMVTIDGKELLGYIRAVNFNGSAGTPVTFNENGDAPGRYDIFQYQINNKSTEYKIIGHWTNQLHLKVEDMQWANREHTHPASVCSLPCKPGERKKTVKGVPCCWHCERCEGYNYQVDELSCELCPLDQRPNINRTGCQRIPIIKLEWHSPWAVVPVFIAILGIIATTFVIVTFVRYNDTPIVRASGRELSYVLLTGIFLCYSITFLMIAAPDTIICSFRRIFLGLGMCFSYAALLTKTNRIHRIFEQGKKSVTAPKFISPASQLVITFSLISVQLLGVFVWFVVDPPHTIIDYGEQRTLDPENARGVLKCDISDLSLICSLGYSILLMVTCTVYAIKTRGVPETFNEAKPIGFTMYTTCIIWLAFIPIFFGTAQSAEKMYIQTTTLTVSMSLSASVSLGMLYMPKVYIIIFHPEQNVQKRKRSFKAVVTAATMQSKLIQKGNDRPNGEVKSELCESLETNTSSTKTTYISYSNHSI
`COc1ccc(C2C=C(c3ccc(Br)cc3)Nc3nc(N4C(=O)CCC4=O)nn32)cc1` (stereo not given) yielded a z-score of 0.112.

In the case of `COCc1cc(C)nc2sc3c(=O)n(Cc4ccco4)nnc3c12`, the z-score is -0.445. In the case of `O=C(NCCc1ccccc1F)/C(=C/c1cccnc1)NC(=O)c1ccccc1` it was 0.0991; in that of `CCCCN1C(=O)C(NC(C)=O)c2ccccc21` (stereo not given), 0.127. Then `CC1(C)C(=O)Nc2ccccc2N1C(=O)COC(=O)Cn1cnc2ccccc2c1=O`, with -0.303; and `COc1ccc(CCNC(=O)C23CN(Cc4ccccc4)CC2C(c2cccc([N+](=O)[O-])c2)=NO3)cc1` (stereo not given), with -0.283; and `CCOC(=O)c1nn(-c2ccc(C)cc2)c2nc(Nc3ccccc3)cc(=O)n12`, with -0.16. As for `Cc1c(C(=O)C(C)C)n(C)c2ccccc12`, the z-score was found to be 0.958. Then `CN(C)c1nc(OCCNC(=O)COc2ccc(Cl)cc2Cl)nc(N(C)C)n1`, with 0.252; and `Cc1ccc(C(=O)Nc2ccc3c(c2)OCCO3)o1`, with 0.0205; and `Clc1ccc(NNc2ccnc3cc(Cl)ccc23)cc1`, with 0.113. Then `Cc1noc(C)c1Cc1c(Cl)cccc1Cl`, with -0.489; and `O=C(Oc1cccc(NC(=O)c2ccccc2Cl)c1)c1ccc([N+](=O)[O-])cc1`, with 0.271; and `O=C(Nc1ccc(OC(F)F)c(Cl)c1)[C@@H]1CCCN1C(=O)c1cccs1`, with -0.362.

The compound `O=S(=O)(Nc1ccc(Cc2ccncc2)cc1)c1ccc(Cl)s1` gave a z-score of 0.279. Turning to `CC(C)NC(=O)CSCc1c(F)cccc1Cl`, the z-score is -0.0579. Then `COc1cccc(C(=O)Nc2nc3c(c(=O)[nH]2)CCCC3)c1`, with -0.541. With `OC(CSc1c(Cl)cccc1Cl)CN1CCN(c2ccccc2F)CC1` (stereo not given), the z-score was -0.165. In the case of `Cc1ccc(NC(=O)NNc2cccc(Cl)n2)cc1` it was 0.0783; in that of `O=C(Nc1nnc(-c2ccc3c(c2)OCCO3)o1)c1ccc(Cc2ccccc2)cc1`, -0.048. In the case of `CN(c1ccccc1)C(c1ccc(F)cc1)c1nnnn1CC1CCCO1` (stereo not given) it was -1.09; in that of `COc1ccc(-c2n[nH]c(=S)n2/N=C/C=C\c2ccccc2OC)cc1`, 0.126; in that of `COc1ccc(Oc2nnc(-c3ccc(C)cc3)c3ccccc23)cc1`, -0.0839. Then `Cc1cc(C)nc(N2CCC(C(=O)Nc3nnc(C)s3)CC2)n1`, with 0.369; and `Cc1cccc(C)c1OCCCN1CCCC1`, with 0.0506. Take `COc1cccc2cc(C(=O)N3CCc4ccccc43)c(=O)oc12`: the z-score was -0.212. In the case of `CCOC(=O)c1ccc(CSc2nnc(C)n2N)o1` it was -0.131; in that of `O=C(/C=C\c1ccc2c(c1)OCO2)NC1(C(=O)Nc2ccc3c(c2)OCCO3)CCCCC1`, 0.845.

In the case of `Cc1n[nH]c(=O)nc1NC(C)c1ccccc1` (stereo not given), the z-score is -0.0669. In the case of `COc1cc(NC(=O)c2cccnc2Sc2ccc(Cl)cc2)cc(OC)c1OC` it was -0.134. In the case of `CC(=O)NC1=C(N(C)C2CCS(=O)(=O)C2)C(=O)c2ccccc2C1=O` (stereo not given) it was -0.129; in that of `CC(=O)Oc1cc2oc(=O)c3c(c2cc1Cl)CCC3`, 0.0481. Then `O=S(=O)(Nc1cccnc1)c1ccc(Cl)cc1`, with -0.0138; and `Cc1cc(OC(=O)c2cccs2)ccc1C(C)C`, with -0.221; and `COc1ccc(NC(=O)c2ccccc2NS(=O)(=O)c2ccc(C)cc2)c([N+](=O)[O-])c1`, with 0.0902. `Cc1ccc(NC(=O)CSc2ccc(C(N)=O)cc2[N+](=O)[O-])cc1`: the z-score was -0.417. In the case of `COc1ccc(NC(=O)c2cccc(NC(=O)C(C)C)c2)c([N+](=O)[O-])c1` it was -0.134; in that of `CCOC(=O)C1=C(C)NC(=O)NC1c1ccc(Br)s1` (stereo not given), -0.44; in that of `COc1ccccc1/C=C/C(=O)N1CCCC1`, -0.149. In the case of `Nc1sccc1C(=O)c1ccccc1` it was active: 11; in that of `CCCc1cc(O)c2c(C)cc(=O)oc2c1`, -1.44. Then `CCOC(=O)c1c(NC(=O)Cn2cnc([N+](=O)[O-])n2)sc2c1CCCC2`, with -0.115; and `O=C(N/N=C/c1ccncc1)c1cc2c(ccc3ccccc32)o1`, with -0.0463.

Regarding `CCN(CC)S(=O)(=O)c1ccc(NC(=O)Cn2c(=O)oc3ccccc32)cc1`, the z-score amounted to 0.44. For `O=C(CN1CCCCC1)NCCNc1ccc(C(F)(F)F)cc1[N+](=O)[O-]`, the z-score was found to be 0.134. In the case of `Cc1ccccc1CNC(=O)c1ccccc1C(=O)O` it was 1.14. Then `NC(=O)C1CCN(CC(=O)NCc2ccccc2)CC1`, with 0.259; and `CC(=O)CC(C)(C)S(=O)(=O)c1ccc(NC(C)=O)cc1`, with -0.279; and `COc1ccc(C(=O)NCCC2=CCCCC2)cc1`, with -0.145. In the case of `Cc1nn(Cc2ccc(F)cc2)c(C)c1NC(=O)c1cc(-c2ccco2)on1` it was 0.924; in that of `CC(C)C(=O)Nc1cccc(-c2csc(-c3ccccc3)n2)c1`, 0.193; in that of `C=CCn1c(SCc2ccc(C#N)cc2)nnc1-c1cccc(OC)c1`, 0.588. `COC(=O)C1=C(C)NC(=O)/C1=C\c1ccco1`: the z-score was active: 8.73. In turn, `O=c1c2ccccc2nc(SCc2nc3ccccc3s2)n1CCCO` registered a z-score of -0.147. `Cc1ccc(S(=O)(=O)/C(=C/Cl)NC(=O)c2ccccc2)cc1` yielded a z-score of -0.0768. Then `O=C(NCc1ccoc1)c1ccc(NC(=O)c2ccccc2Cl)cc1`, with -0.818; and `COc1ccc(C(CNC(=O)c2ccccc2C)N2CCCC2)cc1` (stereo not given), with -0.0862; and `c1ccc(Cc2nn3c(-c4ccncc4)nnc3s2)cc1`, with -0.842.

`CCn1c(CSc2nc(C)cc(C)n2)nnc1SCC(=O)Nc1ccccc1`: the z-score stood at 0.393.

`CNC(=O)c1nnc(Cc2ccc(F)cc2)o1`: the z-score is -0.0918. In the case of `S=C(c1ccc(N2CCOCC2)cc1)N1CCCCC1` it was 0.18.

Take `CC(NC(=O)Cc1ccc(F)cc1)c1ccccc1` (stereo not given): the z-score was -0.383. In the case of `COC(=O)c1ccccc1NC(=O)C1CCN(S(=O)(=O)c2cc(C)ccc2OC)CC1` it was -0.877; in that of `OCCCn1c(-c2ccccc2)n[nH]c1=S`, -0.326; in that of `O=C(Nc1ccc2c(c1)OCCO2)C1CCN(C(=O)c2ccccc2)CC1`, 0.0783. In the case of `Cc1cc(NC(=O)COC(=O)c2oc3c(Cl)cccc3c2C)no1` it was -0.306; in that of `O=C(O)c1ccccc1SC1CC(=O)N(c2ccccc2)C1=O` (stereo not given), -0.154; in that of `O=C(Nc1ccccc1C(=O)O)c1ccc(Br)o1`, -0.102. Then `CC(C)c1nc2n[nH]c(N)c2c2c1CCC2`, with 0.126; and `Cc1cccc(C)c1NC(=O)CSc1nnc(NC(=O)CN2CCOCC2)s1`, with -0.13. In turn, `COC(=O)c1ccc(Nc2nc(C)cc(=O)[nH]2)cc1` registered a z-score of -0.0943. Then `COc1ccccc1NS(=O)(=O)c1ccc(C)c(NC(=O)NC2CCCCC2)c1`, with 0.0776; and `C=C(Cl)COC(=O)C1C2C=CC(C2)C1C(=O)O` (stereo not given), with 0.125; and `CCC12CN3CC(CC)(CN(C1)C3c1ccc(OC(C)C)cc1)C2=O` (stereo not given), with -0.029.

`O=C(Cc1ncc(C(F)(F)F)cc1Cl)Nc1cccc(Br)c1` registered a z-score of -0.143. Then `COc1cc(CCC(=O)OCn2nnc3ccccc3c2=O)cc(OC)c1OC`, with 0.016; and `CCCC1N2CC3([N+](=O)[O-])CN1CC([N+](=O)[O-])(C2)C3(C)C` (stereo not given), with -0.122.

Take `Clc1ccc(Cl)c(-c2nn3c(Cn4cnc5ccccc54)nnc3s2)c1`: the z-score was -0.365. In the case of `c1ccc(CSc2ccc(-c3ccco3)nn2)cc1` it was 0.0753; in that of `OCCN1CCN(CC(O)COc2ccc3ccccc3c2)CC1` (stereo not given), -0.0463. In the case of `O=C(O)/C=C/c1cn(Cc2ccccc2)nc1-c1ccccc1` it was 0.117; in that of `CCOc1ccccc1C(=O)NC1CC2CCCC(C1)N2C1CC1` (stereo not given), -0.732. Compound `COC(=O)C(NC(=O)Nc1ccccc1OC)C(C)C` (stereo not given) gave a z-score of 0.329. Then `O=S(=O)(N/N=C1\CC(c2ccccc2)Oc2ccccc21)c1ccccc1` (stereo not given), with -0.135; and `O=C(c1ccc(Oc2ccccc2)cc1)c1nc2c(n1O)CCCC2`, with -1.84; and `CCN(CC)CCNC1=CC(=O)OC12CCCCC2`, with 0.653. Then `O=C(OCC1OC(n2cnc3c(N(C(=O)c4ccccc4)C(=O)c4ccccc4)ncnc32)C(O)C1F)c1ccccc1` (stereo not given), with 0.0152; and `N/C(=N\OC(=O)c1ccc(Br)cc1)c1ccccc1`, with -0.37.

In the case of `C/C(=N\NC(=O)COc1ccc(C)cc1C(C)C)c1ccc(-n2ccnc2)cc1`, the z-score came to 2.53.

In the case of `Cc1nnc(SCC(=O)NCCOc2ccc(Cl)cc2)n1-c1ccccc1`, the z-score was -0.847.

In turn, `Cc1cc(C)nc(-n2nc(C)cc2NC(=O)c2ccc(Br)o2)n1` registered a z-score of -0.705. In the case of `CCN(CC(=O)Nc1ccc2c(c1)OC(F)(F)O2)Cc1nc2ccccc2c(=O)[nH]1` it was -0.0909; in that of `C=CCn1c(NCc2ccc(N(C)C)cc2)nc2ccccc21`, 0.0461. In the case of `CC(/C=C/c1ccccc1)=N\NC(=O)CNC(=O)c1ccccc1Cl` it was -0.377; in that of `CCOC(=O)c1ccc(Oc2nc(N(C)C)nc(N(C)C)n2)cc1`, 0.229. Consider `CCOC(=O)/C(O)=C/c1ncc(C(F)(F)F)cc1Cl`, for which the z-score is -0.187. In the case of `COC(=O)c1sc(NC(=O)CSc2nnnn2-c2ccc(C)cc2C)nc1C` it was -0.131; in that of `CCCCCn1c(Sc2ncccn2)nc2c1c(=O)[nH]c(=O)n2C`, 0.38. Then `COc1ccc(N2CCN(C(c3ccccc3OC)c3nnnn3Cc3ccco3)CC2)cc1` (stereo not given), with -1.36. Then `COc1cc(OC)c2c(C)cc(=O)oc2c1`, with -0.0168; and `CC1CC(C)CN(c2oc(-c3ccco3)nc2C#N)C1` (stereo not given), with -0.954; and `CC1=C(C(=O)OCc2ccccc2)C(/C=C/c2ccccc2)N2C(=O)CCSC2=N1` (stereo not given), with -0.252. In turn, `COc1ccc(CC(=O)NN2C(=O)c3ccccc3C2=O)cc1` yielded a z-score of -0.0806. Then `Cc1ccc(C(=O)NCCc2csc(C)n2)cc1`, with -0.0897; and `CCOC(=O)c1cnc(SC)nc1Oc1cccc(NS(=O)(=O)c2ccc(F)cc2)c1`, with -0.952. In the case of `COc1ccc2[nH]c(C)cc(=O)c2c1` it was 0.623. Take `Cc1nc(=O)c(-c2ccccc2)c(C)n1CCO`: the z-score is -0.0934. Then `CCSc1nnc(NC(=O)c2cc(C)on2)s1`, with 0.752; and `COc1cccc(/C=c2/s/c(=C(\C#N)C(=O)N3CCOCC3)n(-c3ccccc3)c2=O)c1`, with 0.155; and `O=C(Nc1cccnc1)Nc1ccccc1Cl`, with 0.0762. In the case of `CC(C)N(Cc1nc(-c2ccc(Cl)cc2)no1)C(=O)CCCN1C(=O)c2ccccc2C1=O` it was -0.223; in that of `COC(=O)c1ccc(Cn2cnc3c(cnn3-c3ccc(F)cc3)c2=O)o1`, -0.635. In the case of `Cc1cccc(NC(=O)CSc2nc3nc(C)cc(C)c3c(=O)[nH]2)c1` it was -0.475. In turn, `CCCCCCn1cc(C(=O)O)c(=O)c2ccccc21` displayed a z-score of 0.132. In the case of `Cc1ccc(S(=O)(=O)N(C)CC(=O)N2CCc3ccccc32)cc1` it was 0.202.
